{"source": "PubChem BioAssay AID1345083", "about": "(National Center for Advancing Translational Sciences (NCATS), 2018)", "note": "Hit rate of the full screen: of about 94,000 compounds, about 6,200 (6.6%) were called active. This list was built around the results that the source calls inconclusive (neither active nor inactive); the mix of calls is not that of the screen. Calls follow the shape of the dose curve; as a rule, active = well fitted inhibition curve with a large enough effect; inconclusive = small, poorly fitted or top-dose-only effect; inactive = flat fitted curve, though single readings scatter. Potencies beside an inconclusive call are fits to weak or partial responses and may not hold up. % is scaled to controls: 0 for no effect and ±100 for the full control effect; potency is read from the fitted curve at half-maximal effect; tags tell the direction and shape of the fitted curve.", "data": [{"experiment": "Cytotoxic Profiling in HEK 293 Cell Line of Diverse Libraries Using Quantitative High-Throughput Screening; also: nearly all actives have a fitted effect of over 60% in size", "settings": "HEK 293 viability, ATP luminescence (CellTiter-Glo), 48-72 h; activity change, negative = cytotoxicity: at 115 µM (top of the series) unless noted; series mostly up to 115 µM", "in_short": "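Cytotoxicity was scored by loss of ATP-coupled luminescence (CellTiter-Glo) in HEK 293 cells. Compound treatment ran 48 or 72 hr at 37 degree Celsius, 5% CO2, 95% humidity.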", "values": [{"smiles": "C[S+](=O)([O-])N1CCCC(C(=O)N2CCC3(CC2)CC(=O)Nc2ccccc2O3)C1", "note": "(stereo unspecified)", "Potency": "inconclusive: 50.1 µM [inhibitor, partial curve, poor fit]"}, {"smiles": "COCC1CN(C2CCC2)CC12CCN(C(=O)c1cccc(C#N)c1)CC2", "note": "(stereo unspecified)", "Potency": "inconclusive: 79.4 µM [inhibitor, partial curve, poor fit]"}, {"smiles": "CN1CC(=O)N(c2cccnc2)Cc2c1ncnc2N1CCC(c2ccccc2)CC1", "Potency": "inconclusive: 79.4 µM [inhibitor, partial curve]"}, {"smiles": "CN(C)C(=O)N1CCN(Cc2ccccc2-c2cccnc2)CC1", "activity change, negative = cytotoxicity": "inactive: -11.2% [at 172 µM]"}, {"smiles": "CNC(=O)c1cc(C2CC2)nc2onc(C3CCN([S+](=O)([O-])c4cccc(C(F)(F)F)c4)C3)c12", "note": "(stereo unspecified)", "Potency": "inconclusive: 35.5 µM [inhibitor, full curve, poor fit]"}, {"smiles": "Cc1ccccc1N(C)C1CN([S+](=O)([O-])c2cccs2)C1", "Potency": "active: 79.4 µM"}, {"smiles": "Cc1cc(C(=O)N2C[C@@H](Oc3cccnc3)C[C@H]2C(=O)N2CCCC2)n(C)n1", "activity change, negative = cytotoxicity": "inactive: -6.17%"}, {"smiles": "CC1(CCCCc2ccccc2)COc2ccc(C(=O)N3CCOCC3)cc2N1", "note": "(stereo unspecified)", "Potency": "inconclusive: 89.1 µM [inhibitor, partial curve, poor fit]"}, {"smiles": "O=C1NCCCCCCN(Cc2ccncc2)[C@@H]2CN(S(=O)(=O)Cc3cccc(F)c3)CC[C@H]12", "Potency": "inconclusive: 89.1 µM [inhibitor, single point]"}, {"smiles": "Cc1ccc(-c2cc3c(=O)n(CCNC(=O)c4ccc5cc[nH]c5c4)ccn3n2)cc1C", "Potency": "inconclusive: 50.1 µM [inhibitor, partial curve, poor fit]"}, {"smiles": "O=Cc1cccc(-c2ccc(OC(F)(F)F)cc2)c1", "activity change, negative = cytotoxicity": "inactive: -25.4% [at 172 µM]"}, {"smiles": "COc1ccccc1-c1cccc(C(=O)N2CCN(C(=O)C3CCCC3)CC2)c1", "Potency": "inconclusive: 50.1 µM [inhibitor, partial curve, poor fit]"}, {"smiles": "Cc1ccc([S+](=O)([O-])N2CCC(N3C(=O)c4c(c(C)nn4-c4ccccc4)C3C)C2)cc1", "note": "(stereo unspecified)", "Potency": "inconclusive: 25.1 µM [inhibitor, full curve]"}, {"smiles": "Cc1nc2n(c1C(=O)NCCc1ccccc1)CCC(Nc1cccnc1)C2", "note": "(stereo unspecified)", "Potency": "inconclusive: 126 µM [inhibitor, single point]"}, {"smiles": "c1ccc(Nc2cnc3ccc(N4CCOCC4)nn23)cc1", "Potency": "active: 112 µM"}, {"smiles": "CC(C)N1CC[C@H](CO)[C@H](NC(=O)C2CC2)C1", "activity change, negative = cytotoxicity": "inactive: -9.31%"}, {"smiles": "CCn1cnnc1CC1CCCN(S(=O)(=O)c2ccc(OC)cc2)C1", "note": "(stereo unspecified)", "activity change, negative = cytotoxicity": "inactive: -22.8%"}, {"smiles": "Cc1cccc(NC(=O)N2CC(Oc3cccc(-c4nc(C)no4)c3)C2)c1", "Potency": "inconclusive: 56.2 µM [inhibitor, partial curve, poor fit]"}, {"smiles": "CCc1ccc([S+](=O)([O-])c2nnn3c2nc(NC2CC2)c2ccccc23)cc1", "activity change, negative = cytotoxicity": "inactive: -16.4%"}, {"smiles": "O=C1NC2(Cc3ccccc31)CN(Cc1ccc(F)cc1)C2", "Potency": "inconclusive: 126 µM [inhibitor, single point]"}, {"smiles": "COc1ccccc1-c1cccc(CN2CCCC(C(=O)NCc3ccc4c(c3)OCO4)C2)c1", "note": "(stereo unspecified)", "Potency": "active: 35.5 µM"}, {"smiles": "Cc1ccc(C(=O)N2CCCCCCNC(=O)[C@@H]3CCCC[C@@H]32)s1", "activity change, negative = cytotoxicity": "inactive: -3.4%"}, {"smiles": "O=C(NC1CCCc2c1[nH]c1ccc(F)cc21)c1n[nH]c2c1CCCC2", "note": "(stereo unspecified)", "Potency": "inconclusive: 70.8 µM [inhibitor, partial curve, poor fit]"}, {"smiles": "Cc1ccncc1C(=O)N1CCC2(CC1)NCCc1c2[nH]c2ccccc12", "Potency": "inconclusive: 56.2 µM [inhibitor, partial curve, poor fit]"}, {"smiles": "CCn1nccc1C(=O)N1CCC2(CC1)NCCc1c2[nH]c2ccc(OC)cc12", "Potency": "inconclusive: 39.8 µM [inhibitor, full curve]"}, {"smiles": "COc1ccc(N2CC(c3noc(-c4ccc(N(C)C)cc4)n3)CC2=O)cc1", "note": "(stereo unspecified)", "activity change, negative = cytotoxicity": "inactive: 7.18%"}, {"smiles": "O=C1CCN(S(=O)(=O)c2ccccc2)CCCC(C(=O)NCCc2c[nH]c3ccccc23)CCN1", "note": "(stereo unspecified)", "activity change, negative = cytotoxicity": "inactive: -37%"}, {"smiles": "Cc1ccc(C(=O)N2CCc3cn(C)c4cccc(c34)C2)cc1", "Potency": "inconclusive: 56.2 µM [inhibitor, partial curve, poor fit]"}, {"smiles": "Cc1ccc(C(=O)NC2CCCN(c3cc(-c4ccccc4)[nH]n3)C2)cc1", "note": "(stereo unspecified)", "Potency": "inconclusive: 50.1 µM [inhibitor, partial curve, poor fit]"}, {"smiles": "O=C1CC(c2ccccc2)N(C(=O)C2CC2)CCCN(C(=O)c2ccoc2)CCN1", "note": "(stereo unspecified)", "activity change, negative = cytotoxicity": "inactive: -18%"}, {"smiles": "COc1ccc(-c2cn3c(n2)CO[C@@H](CNCc2ccc(F)c(F)c2)C3)cc1", "Potency": "inconclusive: 100 µM [inhibitor, partial curve]"}, {"smiles": "Cc1ccc(-n2cccc2CC(=O)NC2CCCC2)cc1", "activity change, negative = cytotoxicity": "inactive: -18.5%"}, {"smiles": "Cc1ccc(C(=O)N2CCCN(S(C)(=O)=O)c3ccccc32)cc1C", "Potency": "inconclusive: 56.2 µM [inhibitor, partial curve, poor fit]"}, {"smiles": "O=C(NCc1cccs1)C1CCCN1C(=O)c1cccc(-c2ccccn2)c1", "note": "(stereo unspecified)", "activity change, negative = cytotoxicity": "inactive: -11.7%"}, {"smiles": "Cc1cccc(OCCc2noc(C3CN(C(=O)NCC4CCCO4)C3)n2)c1", "note": "(stereo unspecified)", "activity change, negative = cytotoxicity": "inactive: -16.7%"}, {"smiles": "O=C(NCC(F)F)C1CCN(c2nccc(Nc3ccccc3F)n2)CC1", "Potency": "inconclusive: 89.1 µM [inhibitor, single point]"}, {"smiles": "CCNC(=O)N1CCc2nc(OCCOC)ccc2C1", "activity change, negative = cytotoxicity": "inactive: -26%"}, {"smiles": "CCc1cccc(NC(=O)CN2C(=O)NC(c3ccccc3Cl)C3=C2COC3=O)c1", "note": "(stereo unspecified)", "Potency": "inconclusive: 39.8 µM [inhibitor, partial curve, poor fit]"}, {"smiles": "Cn1nc(-c2nncn2CC2CC2)c2c1CCN(C(=O)c1[nH]nc3c1COc1ccccc1-3)C2", "Potency": "inconclusive: 89.1 µM [inhibitor, single point]"}, {"smiles": "Cc1ccc(CNC(=O)c2cc3c(s2)CCN(C(=O)c2ccccc2)C3)cc1", "Potency": "inconclusive: 50.1 µM [inhibitor, partial curve, poor fit]"}, {"smiles": "CCC(=O)N1CCC([C@H]2[C@@H](OC)C(=O)N2C(C)C)CC1", "activity change, negative = cytotoxicity": "inactive: -6.22%"}, {"smiles": "Cc1cc2nc3n(c(=O)c2n1CC(=O)Nc1cccc(Cl)c1)CCCC3", "Potency": "inconclusive: 89.1 µM [inhibitor, single point]"}, {"smiles": "CN(C)c1ccc(C(=O)N2CCC3(CC2)N=C(c2ccc(Br)cc2)NO3)cc1", "Potency": "inconclusive: 44.7 µM [inhibitor, partial curve]"}, {"smiles": "O=C(CN1C(=O)C(c2ccccc2)=NC12CCCC2)NCc1ccccc1", "Potency": "inconclusive: 44.7 µM [inhibitor, partial curve, poor fit]"}, {"smiles": "O=C(CCC1CCCN(S(=O)(=O)c2ccccc2)C1)N1CCN(c2ccccn2)CC1", "note": "(stereo unspecified)", "Potency": "active: 44.7 µM"}, {"smiles": "CN1CCc2c([nH]c3ccccc23)C12CCN(C(=O)c1cc(CN3CCOCC3)on1)CC2", "Potency": "inconclusive: 89.1 µM [inhibitor, single point]"}, {"smiles": "CC(=O)N(C1CC1)C1CCOC2(CCN(C(=O)Cc3c(C)noc3C)CC2)C1", "note": "(stereo unspecified)", "activity change, negative = cytotoxicity": "inactive: -3.1%"}, {"smiles": "O=C(NCc1cccs1)c1nc2sccn2c1-c1ccc(C(F)(F)F)cc1", "Potency": "inconclusive: 50.1 µM [inhibitor, partial curve, poor fit]"}, {"smiles": "Cc1cccc(Cn2nc3n(c2=O)CCCCC3)c1", "activity change, negative = cytotoxicity": "inactive: 11.7%"}, {"smiles": "c1ccc(C(c2ccccc2)N2CCN(Cc3nc(-c4ccccn4)no3)CC2)cc1", "Potency": "inconclusive: 17.8 µM [inhibitor, full curve, poor fit]"}, {"smiles": "CCC(CC)c1cc([C@H]2CN3CC[C@H]2C[C@@H]3CNC(=O)c2cc(OC)c(OC)c(OC)c2)nc(-c2ccncc2)n1", "Potency": "active: 28.2 µM"}, {"smiles": "O=C(c1ccc(C(F)(F)F)cc1)N1CCC(C(=O)N2CCC(c3ccccc3)CC2)CC1", "Potency": "active: 44.7 µM"}, {"smiles": "O=C(C1CC1)N1CCC2(CC1)CCN(Cc1cccs1)c1ccccc1O2", "Potency": "active: 35.5 µM"}, {"smiles": "O=C(NCc1ccccc1Cl)c1nc2cccnc2n(CCc2ccccc2)c1=O", "outcome": "inactive"}, {"smiles": "CN1CCC2(C1)CN(Cc1ccccc1)c1ccc(C(=O)Nc3ccn(C)n3)cc12", "note": "(stereo unspecified)", "Potency": "inconclusive: 63.1 µM [inhibitor, full curve]"}, {"smiles": "COc1ccc(-n2nc3n(c2=O)CCN(Cc2cccc4ccccc24)C3)cc1", "Potency": "inconclusive: 44.7 µM [inhibitor, partial curve]"}, {"smiles": "O=C(C1CCCCC1)N1CCCC(c2noc(COc3ccccc3)n2)C1", "note": "(stereo unspecified)", "Potency": "inconclusive: 44.7 µM [inhibitor, partial curve]"}, {"smiles": "CCCc1nnc(C[C@@H]2C[C@@H](C(C)C)[C@H](CN3CCN(CCO)CC3)C=C2C)o1", "Potency": "inconclusive: 79.4 µM [inhibitor, partial curve, poor fit]"}, {"smiles": "COc1ccccc1Nc1cnc2ccc(-c3ccc(F)cc3)nn12", "Potency": "active: 70.8 µM"}, {"smiles": "O=S(=O)(c1ccc(F)cc1)N1CCCC(Cc2noc(-c3ccccc3)n2)C1", "note": "(stereo unspecified)", "Potency": "inconclusive: 56.2 µM [inhibitor, partial curve, poor fit]"}, {"smiles": "CCCN1CCCCC12Cc1ccccc1CN(C(=O)C1CCCC1)C2", "note": "(stereo unspecified)", "Potency": "inconclusive: 50.1 µM [inhibitor, partial curve, poor fit]"}, {"smiles": "O=C(CCC[C@@H]1[C@H]2CCCN3CCC[C@@H](CN1C(=O)C1CCC1)[C@@H]23)NCC1CC1", "activity change, negative = cytotoxicity": "inactive: 6.14%"}, {"smiles": "Cc1cc(C(=O)NCc2ccnc3[nH]ccc23)ccc1Cl", "Potency": "inconclusive: 89.1 µM [inhibitor, partial curve, poor fit]"}, {"smiles": "COCCN1CCCC[C@]2(C[C@H](CO)[C@H](c3ccco3)N2C(=O)Cc2ccc(OC)cc2)C1=O", "Potency": "inconclusive: 89.1 µM [inhibitor, single point]"}, {"smiles": "COc1ccc(CNC(=O)c2c(C)sc3ccn(CC(C)C)c(=O)c23)cc1OC", "Potency": "inconclusive: 56.2 µM [inhibitor, partial curve, poor fit]"}, {"smiles": "O=C(NCC1Cn2cccc2CN1Cc1ccccc1)c1ccoc1", "note": "(stereo unspecified)", "activity change, negative = cytotoxicity": "inactive: -29.2%"}]}]}
